Measured values published in PubChem BioAssay AID1508624 (National Center for Advancing Translational Sciences (NCATS), 2021).
In all, about 48,000 compounds went through this assay and about 120 (0.25%) were called active. The inconclusive results got no clear call from the source; some entries with a clear call stand among them for comparison. Calls follow the shape of the dose curve; as a rule, active = well fitted activation curve with a large enough effect; inconclusive = small, poorly fitted or top-dose-only effect, or another doubt; inactive = no such curve, though single readings can be large or run the other way. A potency beside an inconclusive call is a rough fit, not a confirmed value.

assay: Primary qHTS for Identification of Small Molecule Activators of Huntingtin-Antisense Promoter Activity; conditions: HEK293 HTT-AS promoter firefly luciferase reporter, 24 h; activity change, positive = activation: at 57.5 µM (top of the series), percent change from vehicle, -100% = no light unless noted; also: nearly all actives have a fitted effect of over 55% in size
Procedure, shortened: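 Firefly luciferase readout (Dual-Glo, 10 min RT) after 24 h, 37 °C compound exposure (final up to 57.5 uM) of HEK293 reporter cells cultured 24 h beforehand; PTC124 at 50 uM final as control inhibitor; activity scaled vehicle 0%, zero RLU -100%.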
Potency is read from the fitted curve at half-maximal effect; tags tell the direction and shape of the fitted curve.

Potency, inconclusive:
Cc1ccccc1-c1nnc(SCC(=O)N(C)c2ccccc2)o1 11.2 µM [activator, partial curve, poor fit]
COC(=O)c1ccc(NC(=O)Cn2ccn3nc(-c4ccc(OC)cc4)cc3c2=O)cc1 10 µM [activator, partial curve, poor fit]
Cc1ccc2nc(N(Cc3cccnc3)C(=O)c3ccco3)sc2c1 15.8 µM [activator, partial curve, poor fit]
CCOc1ccccc1NC(=O)Nc1ccc2nc(N3CCN(C)CC3)cc(C)c2c1 5.62 µM [activator, partial curve]
Nc1ccc(O)c([N+](=O)[O-])c1 39.8 µM [activator, partial curve, poor fit]
CN1CC[C@@H](c2c(O)cc(O)c3c(=O)cc(-c4ccccc4Cl)oc23)[C@@H](O)C1 0.0432 µM [activator, full curve]
O=C(NCCN1CCCCC1)c1ccc(Cn2c(SCc3ccccc3)nc3cccnc32)cc1 15.8 µM [activator, partial curve, poor fit]
Cn1c(C(=O)N2CCC(C(=O)NCCc3ccccc3)CC2)cc2sccc21 7.08 µM [activator, partial curve, poor fit]
COc1ccc(CCNc2nc3cc(OC)c(OC)cc3c3nc(-c4ccccc4)nn23)cc1OC 22.4 µM [activator, partial curve]
Cc1ccc(C)c(-n2nnc(-c3nc(-c4ccccc4C)no3)c2C)c1 10 µM [activator, partial curve]
COc1cc(OC)cc(C(=O)Nc2ccc(-c3nc4cc(C(C)C)ccc4o3)cc2)c1 1.78 µM [activator, full curve, poor fit]
Cc1ccc(Nc2c(-c3ccc(C)s3)nc3ncccn23)cc1 35.5 µM [activator, single point]

Potency, inactive:
COc1ccc2c(c1)CCc1c(C(=O)Nc3cnn(Cc4ccc(Cl)cc4Cl)c3)noc1-2
Cc1ccc(NC(=O)c2cc(S(=O)(=O)N3CCC(C)CC3)cn2C)cc1Cl
Cc1ccc(C(=O)Nc2ccccc2)cc1S(=O)(=O)Nc1ccccc1
Cc1ccc2c(CNCc3ccc(C)o3)c(C(=O)O)n(Cc3ccc(F)cc3)c2c1

Potency, active:
Cc1cc(Br)cc(C)c1NC(=O)c1cnc2ccccn2c1=O 28.2 µM

Activity change, positive = activation, inconclusive:
O=C(c1ccccc1)N1CCCC(c2nc3c(nnn3Cc3ccc(F)cc3F)c(=O)[nH]2)C1 (stereo not drawn) -65.7% [activator]
